The target of assay [1] is T1, Human CD138 His (Homo sapiens, UniProt P18827).
T1 construct: His
T1 sequence (P18827 23-310): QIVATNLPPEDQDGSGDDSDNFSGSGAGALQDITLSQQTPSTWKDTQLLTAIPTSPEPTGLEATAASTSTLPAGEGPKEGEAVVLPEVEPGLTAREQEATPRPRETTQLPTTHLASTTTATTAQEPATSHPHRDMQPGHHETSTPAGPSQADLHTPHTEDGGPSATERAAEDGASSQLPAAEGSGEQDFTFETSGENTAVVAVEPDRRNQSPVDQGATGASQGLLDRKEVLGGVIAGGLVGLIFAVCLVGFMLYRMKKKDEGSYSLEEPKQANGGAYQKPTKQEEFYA
Put plainly: SPR kinetic binding, human CD138. To be noted: bivalent analyte fit. On the procedure: Murine IgGs were purified from the hybridoma supernatants and the IgGs were subject to SPR (surface plasmon resonance) for kinetic binding measurements. Human or mouse CD138 His was immobilized on a GLM chip at […] on a BioRad Proteon. […] KDs were measured using bivalent analyte fit.

The test system of assay [2] is FGFR3+ KMS-11 cells. Put plainly: Internalization assay (cytotoxicity of Fynomer cross-linked with MMAF-conjugated 9E10). It is filed as cell-based. As to the method: In order to assess the ability of the Fyn SH3-derived polypeptides binding to FGFR3 to internalize upon binding to the target, an internalization assay based on the intracellular delivery of a cytotoxic agent was established.
MMAF is an antimitotic agent (blocks tubulin polymerization) and is active only upon internalization into the cells. Therefore, this assay indicates how well the Fynomers facilitate internalization of MMAF. 50 μL of KMS-11 cells at 2×10^5 cells/mL were seeded into a 96-well flat bottomed plate (Corning Costar 3610), to give 10,000 cell per well. The cells were incubated for 4 hours to allow the cells to adhere (37° C., 5% CO2). Fynomers and 9E10-MMAF were mixed at a 3:1 ratio. A 4× stock of Fynomer (4 pM) and a 4× stock of 9E10-MMAF (1.33 pM) were prepared in RPMI media (see section 5.4.1) and mixed 1:1 (40 μl+40 μL). This mixture was then serially diluted 1 in 3, to give a concentration range 1000 nM-50 pM. 50 μL of the sample was added to the 50 μL of cells (as seeded above), and incubated for 5 days (37° C., 5% CO2). Appropriate controls, the wild-type Fynomer FynSH3, MMAF-9E10 without Fynomer and also cells without addition of any reagents, were included. All samples were prepared in duplicate. After 5 days, 100 μL Cell titer glo (Promega G7573) was added to each well and incubated with gentle shaking for 10 min in the dark. As a read-out for cell viability, luminescence was measured using a Tecan M1000 instrument. Analysis was performed using Prism 6. The data was transformed (X=log X), and analyzed using a non-linear fit, log(inhibitor) vs. response—Variable slope (4 parameters).

Assay [3] concerns the target T2, huFGFR3 on FGFR3-positive KMS-11 cells (Homo sapiens, UniProt P22607, Y373C).
T2 construct: host or cells: KMS-11
Put plainly: Affinity measurement by flow cytometry, KMS-11. It is filed as binding. On the procedure: (§1) Binding of Fynomers to huFGFR3 on cells was analyzed by flow cytometry using KMS-11 cells (JCRB1179) as FGFR3-positive cells and N87 (ATCC, CRL-5822) as a FGFR3-negative control cell line. Both KMS-11 and N87 cells were maintained in RPMI1640 medium (Invitrogen 52400-25). All media were supplemented with 25 U/mL penicillin, 25 µg/mL streptomycin and 10% FCS. To harvest the semi-adherent KMS-11 cells from a T150 flask, the supernatant was removed into a 50 mL falcon tube, and the cells were washed with 10 ml PBS, which was also added to the falcon tube. 2 ml of Accutase (Sigma A6964) was added to the flask, and incubated for 10 min at 37° C. The Accutase was inactivated with the addition of 10 ml medium and added to the falcon tube, which was then centrifuged (250×g, 5 min) to pellet the cells. The cells were resuspended in FACS buffer (PBS+1% FCS+0.2% sodium azide) to a cell concentration of 1×10^6 cells/mL and 100 μL was used per well (1×10^5 cells/well) for the flow cytometry staining in a 96-well round bottomed plate (Nunc 163320). For adherent N87 cells the supernatant and wash were discarded, and only the Accutase-detached cells were collected and prepared.
(§2) This mixture was serially diluted 1 in 4 down to a Fynomer concentration of 0.06 nM (8 concentrations in total). […] Cells were centrifuged in the 96-well plate (250× g, 5 min) and were resuspended with the samples indicated above, before incubation on ice for 1 hr. The plate was centrifuged and washed (PBS+0.2% sodium azide), before centrifuging again. Then 50 μL of the secondary antibody anti-mIgG Alexa488 (Life Technologies A21202) was added to the cells at a concentration of 4 pg/mL, before incubating in the dark, on ice, for 45 min. The plate was centrifuged and washed twice with PBS+0.2% sodium azide, before resuspending in FACS buffer and FACS analysis (Millipore Guava easyCyte 8HT).
(§3) FACS data analysis was performed using Prism 6. The data was transformed (X=log X), and analyzed using a non-linear fit, log(agonist) vs. response—Variable slope (4 parameters).

Assay [4] concerns FGFR3-negative N87 cells. Put plainly: Flow cytometry on FGFR3-negative control cells N87. Format: binding. To be noted: FIG. 11B. As to the method:
as §1, §2, §3

Assay [5] concerns the target mouse FGFR3c (Mus musculus, UniProt Q61851). Put plainly: mFGFR3c ELISA of bi-specific binding agents. The conditions noted are these: NB = No binding. The source says:
Similarly, for expression of hF6 comprising G7 fused to the C-terminus of the heavy chain, a nucleic acid construct was generated comprising a coding region directing the expression of the hF6 heavy chain located 5′ of, and in-frame with, a sequence encoding the linker and a coding region directing the expression of G7. For expression of hF6 comprising G7 fused to the N-terminus of the light chain, a nucleic acid construct was generated comprising a coding region directing the expression of G7 located 5′ of, and in-frame with, a sequence encoding the linker and a coding region directing the expression of the hF6 light chain. For expression of hF6 comprising G7 fused to the C-terminus of the light chain, a nucleic acid construct was generated comprising a coding region directing the expression of the hF6 light chain located 5′ of, and in-frame with, a sequence encoding the linker and a coding region directing the expression of G7. The indicated constructs were then co-transfected into CHO cells with a nucleic acid construct directing the expression of the corresponding heavy or light chain of hF6.

[6] abbreviates: KMS-11, 5 days, Fynomer:9E10-MMAF 3:1, Cell titer glo, read-out: EC50 (nM) in internalization assays.
[7] abbreviates: flow cytometry, Fynomer cross-linked with 9E10, read-out: EC50 (nM) on FGFR3-positive KMS-11 cells.

Numbering of substitutions follows the chain as printed. Values joined by “and” are separate entries in the source; they are usually repeats but may differ in a detail not shown here. Equal entries are not always repeated. Where two headings read alike, the source gives them in different places.

T2 sequence (P22607 23-806 Y373C): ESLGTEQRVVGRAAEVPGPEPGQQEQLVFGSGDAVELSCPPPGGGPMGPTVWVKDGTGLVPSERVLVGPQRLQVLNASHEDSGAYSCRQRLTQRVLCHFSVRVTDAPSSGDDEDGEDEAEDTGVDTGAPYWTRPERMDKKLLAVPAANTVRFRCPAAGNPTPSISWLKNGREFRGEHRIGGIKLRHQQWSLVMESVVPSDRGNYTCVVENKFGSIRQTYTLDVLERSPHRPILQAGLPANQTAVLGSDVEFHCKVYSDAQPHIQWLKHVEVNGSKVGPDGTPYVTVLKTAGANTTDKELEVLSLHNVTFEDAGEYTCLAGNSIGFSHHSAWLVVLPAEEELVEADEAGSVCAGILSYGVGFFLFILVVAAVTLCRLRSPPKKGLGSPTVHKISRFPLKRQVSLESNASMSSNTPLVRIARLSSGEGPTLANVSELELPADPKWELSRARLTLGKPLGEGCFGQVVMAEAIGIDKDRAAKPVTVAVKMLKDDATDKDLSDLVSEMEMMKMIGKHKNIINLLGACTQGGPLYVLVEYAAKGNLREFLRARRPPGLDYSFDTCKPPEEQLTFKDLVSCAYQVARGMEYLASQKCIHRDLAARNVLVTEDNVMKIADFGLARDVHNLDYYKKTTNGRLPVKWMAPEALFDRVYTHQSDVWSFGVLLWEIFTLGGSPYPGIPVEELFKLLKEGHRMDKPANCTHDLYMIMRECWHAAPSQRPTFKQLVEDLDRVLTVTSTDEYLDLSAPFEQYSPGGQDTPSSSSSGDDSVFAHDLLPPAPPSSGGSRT
Chain of mouse FGFR3c (Q61851 21-801): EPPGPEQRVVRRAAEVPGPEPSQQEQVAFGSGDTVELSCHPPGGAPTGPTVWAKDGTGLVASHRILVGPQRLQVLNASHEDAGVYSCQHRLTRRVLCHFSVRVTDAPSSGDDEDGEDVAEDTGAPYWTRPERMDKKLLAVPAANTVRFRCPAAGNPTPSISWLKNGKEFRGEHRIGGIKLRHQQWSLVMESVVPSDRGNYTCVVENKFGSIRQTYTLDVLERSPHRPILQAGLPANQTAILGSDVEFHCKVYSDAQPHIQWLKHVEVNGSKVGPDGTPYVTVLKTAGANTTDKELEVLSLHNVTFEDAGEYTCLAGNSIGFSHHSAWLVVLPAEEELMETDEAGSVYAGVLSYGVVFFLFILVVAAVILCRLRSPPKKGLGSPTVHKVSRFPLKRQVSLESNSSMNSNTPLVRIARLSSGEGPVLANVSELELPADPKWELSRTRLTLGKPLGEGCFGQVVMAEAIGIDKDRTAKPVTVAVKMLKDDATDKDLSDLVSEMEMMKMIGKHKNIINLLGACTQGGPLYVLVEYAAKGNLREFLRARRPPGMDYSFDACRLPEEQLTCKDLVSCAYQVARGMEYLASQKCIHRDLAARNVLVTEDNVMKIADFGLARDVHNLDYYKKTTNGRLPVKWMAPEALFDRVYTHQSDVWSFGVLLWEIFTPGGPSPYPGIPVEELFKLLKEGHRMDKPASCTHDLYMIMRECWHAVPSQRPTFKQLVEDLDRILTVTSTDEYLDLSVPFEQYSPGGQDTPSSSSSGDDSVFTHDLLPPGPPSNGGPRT

B1: F12P18D4.a: murine anti-CD138 hybridoma antibody; VH SEQ ID NO:88, VL SEQ ID NO:40 (antibody, listed as Mus musculus, V domains shown)
VH: EVQLQQSGPELVKPGASVKMSCKASGYTFADYYMKWVKQSHGKSLEWIGDINPNSGDTFYNHKFKGKATLTVDKSSSTAYMQLNSLTSEDSAVYYCARTYYDYWGQGTTLTVSS
VL: DVVMTQTPLTLSVTIGQSASISCKSSQSLLYSNGKTYLNWLLQRPGQSPKRLIYLVSKVDSGVPDRFTGSGSGTDFTLSISRVEAEDLGVYYCVQGTHFPLTFGVGTKLELKR
B1: in assay [1], the “hCD138 ka” value is 631000 M⁻¹ s⁻¹ and the “hCD138 kd” value is 0.018 s⁻¹.

B2: FF40L54A5 (protein)
chain: GVTLFVALYDYEVMSTTALSFHKGEKFQILSQSPHGQYWEARSLTTGETGWIPSNYVAPVDSIQ
modifications: left off: small tags and cut ends
Consider B2, for which the EC50 was determined as 4.7 nM in assay [2] (Table 28 part 2, read-out: EC50 (nM) in internalization assay) and 6.6 nM in assay [3] (Table 28 part 2, read-out: EC50 (nM) for binding to FGFR3+ KMS-11 cells).

B3: FF2L4C3 (protein)
chain: GVTLFVALYDYEVYGPTPMLSFHKGEKFQILNSSEGPYWEARSLTTGETGLIPSNYVAPVDSIQ
modifications: left off: small tags and cut ends
In the case of B3, the “binding to FGFR3 negative control cell line N87” value (shortened to “binding”) in assay [4] is listed as “no binding”. For the same molecule, in assay [2] (setting [6]), the EC50 was 28.5 nM and 21 nM and 26.4 nM.

B4: FF44L65B7 (protein)
chain: B3 chain with N32R, S33R, S34G, E35S
modifications: left off: small tags and cut ends
Regarding B4, in assay [4], the “binding” value is given as “no binding”. For the same molecule, the figures for the EC50 in assay [2] (setting [6]) and in assay [3] (setting [7]) were 1.8 nM and 0.6 nM, respectively.

B5: FF43L65D5 (protein)
chain: B3 chain with N32R, S33K, S34G, E35K, T45A
modifications: left off: small tags and cut ends
As to B5, in assay [4], the “binding” value was “no binding”. In addition, the results for the EC50 in assay [2] (setting [6]) and in assay [3] (setting [7]) were 0.8 nM and 1.2 nM, respectively.

B6: FF48L66G7 (G7) (protein)
chain: B3 chain with N32K, S33G, S34G, E35S
modifications: left off: small tags and cut ends
On to B6, for which the “binding” value in assay [4] is “no binding”. The EC50 in assay [2] (setting [6]) was 2.4 nM; in assay [3] (setting [7]), 2.3 nM.

B7: FF44L65G7 (protein)
chain: B3 chain with N32R, S33G, S34G, E35D
modifications: left off: small tags and cut ends
Take B7: the “binding” value in assay [4] is listed as “no binding”. The EC50 in assay [2] (setting [6]) was found to be 2.6 nM; in assay [3] (setting [7]) it was 4.2 nM.

B8: FF44L65G12 (protein)
chain: B3 chain with N32R, S33G, S34G, E35Q
modifications: left off: small tags and cut ends
Turning to B8, the “binding” value in assay [4] was “no binding”. In addition, the EC50 is 2.5 nM in assay [2] (setting [6]) and 2.2 nM in assay [3] (setting [7]).

B9: hF6-LC-G7: bi-specific: G7 Fynomer attached to the C-terminal end of the light chain of the hF6 antibody (antibody)
heavy: QVQLVQSGAEVVKPGASVKLSCKASGYTFTSYYLYWVKKAPGQGLDWIGEIYPRSGGTNINEKFLSRVTLTADTSTSTAYLELSSLTSEDTAVYYCTRSLLYWGQGTTLTVSS[letters of human IgG1 constant region left out]
light: DVVMTQTPLSLSVTPGQPASISCKSSQSLLASDGKTYLNWLLQRPGQSPKRLIYLVSKLDSGVPNRFSGSGSGTDFTLQISRVEAEDVGLYYCWQGAHFPFTFGSGTKLEIKRTVAAPSVFIFPPSDEQLKSGTASVVCLLNNFYPREAKVQWKVDNALQSGNSQESVTEQDSKDSTYSLSSTLTLSKADYEKHKVYACEVTHQGLSSPVTKSFNRGECGGGGSGGGGSGGGGSGVTLFVALYDYEVYGPTPMLSFHKGEKFQILKGGSGPYWEARSLTTGETGLIPSNYVAPVDSIQ
For the molecule B9, the response in assay [5] was half-maximal at 0.94 nM (EC50).

B10: hF6-LN-G7: bi-specific: G7 Fynomer attached to the N-terminal end of the light chain of the hF6 antibody (antibody)
heavy: B9 heavy
light: GVTLFVALYDYEVYGPTPMLSFHKGEKFQILKGGSGPYWEARSLTTGETGLIPSNYVAPVDSIQGGGGSGGGGSGGGGSDVVMTQTPLSLSVTPGQPASISCKSSQSLLASDGKTYLNWLLQRPGQSPKRLIYLVSKLDSGVPNRFSGSGSGTDFTLQISRVEAEDVGLYYCWQGAHFPFTFGSGTKLEIKRTVAAPSVFIFPPSDEQLKSGTASVVCLLNNFYPREAKVQWKVDNALQSGNSQESVTEQDSKDSTYSLSSTLTLSKADYEKHKVYACEVTHQGLSSPVTKSFNRGEC
B10 registered an EC50 in assay [5] of 0.49 nM.

For the origin of these results see patent US20220249679A1 (Mitsubishi Tanabe Pharma Corporation, priority 2018, published 2022).
